From PubChem BioAssay AID463173 (ICCB-Longwood Screening Facility, Harvard Medical School, 2010)
Out of some 52,000 compounds screened, about 1,700 (3.3%) were called active. Rule as the data show it: active = survival mostly below about 52% (no sharp cut-off); inactive = mostly above about 56%. Some of the results follow.

Each molecule was assayed on Wild type (assay: growth inhibition of S. aureus wild type versus tarO mutant, primary screen, teichoic acid synthesis inhibitors, RN4220, OD600 (AID 463173)). Details: S. aureus RN4220 wild type/DeltatarO growth, OD600, 18 h, active compounds read low, screened at 18.75 µg/mL (by protocol).
With `CCc1cc2c(cc3c(=O)n(CCCC(=O)NCc4cccc(Cl)c4)ncn32)s1` the survival was inactive: 76%.
`COc1ccc(NC(=O)NC2COc3ccccc3C2)cc1Cl` (stereo not drawn) was tested, and the survival was inactive: 65%.
For `Cc1ccc(CN2C(=O)c3ccccc3CC2(C)C(=O)NC2CCCCC2)cc1` (stereo not drawn), the survival was inactive: 84%.
In the case of `Cc1cccc(N2CCN(C(=O)c3noc4c3COc3ccc(C)cc3-4)CC2C)c1` (stereo not drawn), the survival is reported as inactive: 80%.
For `CC(C)c1cnc2c(c1SCC(=O)NCc1ccccc1Cl)c(=O)n(C)c(=O)n2C`, the survival was inactive: 99%.
For `O=C(c1ccc2c(c1)N(Cc1cccc(F)c1)C(=O)c1ccccc1S2)N1CCCC1`, the survival was inactive: 92%.
With `COc1ccc(C(CC(=O)Nc2ccc(C(C)=O)cc2)N2Cc3ccccc3C2=O)cc1` (stereo not drawn) the survival was inactive: 88%.
For `Cc1cccc2c1-c1sc(C(=O)N(C)c3cccc(Cl)c3)cc1CO2`, the survival was active: 0%.
With `CCOc1ccccc1C(=O)NC1(C(F)(F)F)C(=O)Nc2c1c(=O)[nH]c(=O)n2-c1ccc(F)cc1` (stereo not drawn) the survival was inactive: 64%.
With `CSc1ccc(CCNC(=O)CCc2c(C)nc3ncnn3c2C)cc1` the survival was inactive: 71%.
In the case of `Cn1nnnc1SCCNCc1cc(Br)ccc1OCc1ccccc1Cl`, the survival is reported as inactive: 59%.
With `COc1cccc(OC)c1C(=O)NCCc1csc(-c2ccc(Cl)cc2)n1` the survival was inactive: 84%.
In the case of `COC(=O)c1c(-c2cccs2)csc1NC(=O)COc1ccc(C)cc1`, the survival is reported as inactive: 116%.
In the case of `Cc1ccc(C(=O)Nc2cccc3cccnc23)cc1Cl`, the survival is reported as inactive: 75%.
`CCOc1ccc(NC(=O)COc2ccc(S(=O)(=O)NC3CCCCC3)cc2)cc1` was tested, and the survival was inactive: 60%.
In the case of `CN1CCN(c2ncc3c(n2)CCN(Cc2ccc(Br)s2)C3)CC1`, the survival is reported as inactive: 64%.
`CCOC(=O)c1c(Nc2ccc(OC)cc2)nnc(-c2ccccc2)c1-c1ccccc1` was tested, and the survival was active: 5%.
`COc1ccc(-c2csc(=Nc3ccccc3)n2CCO)cc1F` was tested, and the survival was inactive: 63%.
`O=C(N/N=C/C=C/c1ccco1)c1cccs1` was tested, and the survival was inactive: 116%.
With `CCCOc1ccc(-c2nc(SCC(=O)c3ccc(Cl)cc3)n[nH]2)cc1` the survival was inactive: 151%.
`CC(=O)c1ccc(N2CCN(C(=O)C3CCN(S(=O)(=O)c4cn(C)cn4)CC3)CC2)cc1` was tested, and the survival was inactive: 73%.
For `Cn1c(=O)c2sccc2n2c(CCC(=O)NCc3ccc(Cl)cc3)nnc12`, the survival was inactive: 144%.
`Cc1cccn2c(=O)c(C(=O)NCc3cccc(F)c3)cnc12` was tested, and the survival was inactive: 79%.
`CCOc1ccc(CNC(=O)Cc2ccc(NC(=O)N3CCSc4ncccc43)cc2)cc1` was tested, and the survival was inactive: 72%.
With `CCC(=O)N(Cc1cc(=O)[nH]c2ccccc12)C1CCCCC1` the survival was inactive: 106%.
With `Cc1cccc(-c2nc3scc(CCNS(=O)(=O)c4ccc5c(c4)OCCO5)n3n2)c1` the survival was inactive: 87%.
`Cc1ccc(Cl)cc1Nc1nn2c(=O)c3ccc(C(=O)NCc4ccc(F)cc4)cc3nc2s1` was tested, and the survival was inactive: 135%.
In the case of `COc1ccc(Nc2c(-c3cccc(O)c3)nc3cnccn23)cc1`, the survival is reported as inactive: 57%.
With `CCOC(=O)N1CCc2c(sc3c2c(=O)n(-c2ccc(Cl)cc2)c(=O)n3CC(C)C)C1` the survival was inactive: 78%.
For `COc1ccc(-c2nc3cc(NC(=O)CSc4ccc(C)cc4)ccc3o2)cc1`, the survival was inactive: 92%.
In the case of `CC(C)C(c1nnnn1Cc1ccccc1)N1CCC(C(N)=O)CC1` (stereo not drawn), the survival is reported as inactive: 98%.
With `COc1ccc(NC(=O)c2oc3ccccc3c2NC(=O)Cc2coc3c(C)c(C)ccc23)cc1` the survival was inactive: 102%.
For `COc1ccccc1-c1cc(C(=O)NCc2ccccc2)c2c(-c3ccc(C)cc3)[nH]nc2n1`, the survival was inactive: 74%.
With `O=C(Nc1ncc(Cc2ccccc2)s1)C1CCCO1` (stereo not drawn) the survival was inactive: 113%.
`CCc1ccc(NC(=O)Cn2ccn(-c3ccc(C)c(C)c3)c(=O)c2=O)cc1` was tested, and the survival was inactive: 120%.
`Cc1ccc(S(=O)(=O)c2nc(S(=O)(=O)c3ccccc3)sc2NCCCOC(C)C)cc1` was tested, and the survival was inactive: 83%.
In the case of `C=CCc1c(C)nc(SC)[nH]c1=O`, the survival is reported as inactive: 114%.
In the case of `Cc1c(Cl)cccc1NC(=O)CCS(=O)(=O)c1ccc2c(c1)CC(=O)N2C`, the survival is reported as inactive: 85%.
In the case of `O=C(CSc1n[nH]c(-c2ccc(F)cc2)n1)NCCc1ccccc1`, the survival is reported as inactive: 120%.
With `CCOc1ccc(NC(=O)/C(C#N)=C\c2ccc(-c3ccc(Cl)cc3)o2)cc1` the survival was inactive: 59%.
For `COc1cccc(NC(=O)Cn2cc(C(=O)c3ccc(C)cc3)c(=O)c3cc(OC)ccc32)c1`, the survival was inactive: 67%.
With `Cc1ccccc1NC(=O)Cn1c(=O)n(Cc2ccc3c(c2)OCO3)c(=O)c2ccccc21` the survival was inactive: 86%.
With `CCN(CC)CCNC(=O)c1c2c(nc3ccccc13)C(=O)N(C1CCCCC1)C2` the survival was inactive: 75%.
For `Cc1ccc(S(=O)(=O)NCCc2cn3ccsc3n2)c(C)c1`, the survival was inactive: 81%.
With `CCc1ccc(NC(=O)CN2C(=O)C3(SCC(=O)N3c3ccc(F)c(F)c3)c3ccccc32)cc1` (stereo not drawn) the survival was inactive: 125%.
In the case of `Cc1cc2ccccc2n1CCNC(=O)c1ccc(Br)cc1`, the survival is reported as inactive: 74%.
With `CCc1nc2nc(C)cc(Nc3cccc(C)c3C)n2n1` the survival was inactive: 75%.
With `Cc1cccc(C2CC(=O)Nc3cc4c(cc32)OCO4)c1` (stereo not drawn) the survival was inactive: 89%.
For `N#Cc1cc2c(nc1S(=O)(=O)Cc1ccccc1)CCCC2`, the survival was inactive: 122%.
`COc1ccc(CNC(=O)CCc2c(C)c3cc4c(C)c(C)oc4cc3oc2=O)cc1OC` was tested, and the survival was inactive: 111%.
For `CC(C)c1ccc(OCC(=O)N(Cc2cccs2)C2CCS(=O)(=O)C2)cc1` (stereo not drawn), the survival was inactive: 73%.
For `COC(=O)c1ccc(NC(=O)CN2C(=O)CC(c3ccccc3)Sc3ccccc32)cc1` (stereo not drawn), the survival was inactive: 93%.
In the case of `Cc1cc(C)n(C(C)CC(=O)Nc2ccc(C)c(N(C)C)c2)n1` (stereo not drawn), the survival is reported as inactive: 83%.
For `C=C(C)CSc1nc(-c2ccccc2)cc(-c2ccc(OC)cc2)c1C#N`, the survival was inactive: 75%.
In the case of `CCOc1cc(Cl)c(S(=O)(=O)n2ccnc2)cc1Cl`, the survival is reported as inactive: 74%.
In the case of `Cc1nnc(N2CCC(C(=O)NCCC(C)C)CC2)c2nn(-c3ccc(Cl)cc3)c(C)c12`, the survival is reported as inactive: 74%.
For `CCC(C(=O)N1CCN(c2ccccc2)CC1)n1c(C)c2cnn(-c3ccccc3)c(=O)c2c1C` (stereo not drawn), the survival was inactive: 81%.
With `O=C(NC1CCCC1)c1ccc2c(=O)n(Cc3ccccc3)c(SCc3cccc(F)c3)nc2c1` the survival was inactive: 68%.
